MIC of clinical C. albicans isolates, CLSI broth microdilution (ranges and time not stated); higher = less susceptible. Call: susceptible or wild type [S] / resistant or non-wild type [R] by CLSI breakpoints or epidemiological cut-offs; intermediate and dose-dependent carry no call here (the paper groups them with resistant). '<=' and '>=' mark each drug's lowest and highest value, inferred; the source prints them plain. Isolates are numbered anew.
Key:
Assay in all cases: CLSI broth microdilution.
micafungin = compound: CCCCCOc1ccc(-c2cc(-c3ccc(C(=O)N[C@H]4C[C@@H](O)[C@@H](O)NC(=O)[C@@H]5[C@@H](O)[C@@H](C)CN5C(=O)[C@H]([C@H](O)CC(N)=O)NC(=O)[C@H]([C@H](O)[C@@H](O)c5ccc(O)c(OS(=O)(=O)O)c5)NC(=O)[C@@H]5C[C@@H](O)CN5C(=O)[C@H]([C@@H](C)O)NC4=O)cc3)no2)cc1 [micafungin]
caspofungin = compound: CC[C@H](C)C[C@H](C)CCCCCCCCC(=O)N[C@H]1C[C@@H](O)[C@@H](NCCN)NC(=O)[C@@H]2[C@@H](O)CCN2C(=O)[C@H]([C@H](O)CCN)NC(=O)[C@H]([C@H](O)[C@@H](O)c2ccc(O)cc2)NC(=O)[C@@H]2C[C@@H](O)CN2C(=O)[C@H]([C@@H](C)O)NC1=O [caspofungin]
posaconazole = compound: CC[C@@H]([C@H](C)O)n1ncn(-c2ccc(N3CCN(c4ccc(OC[C@@H]5CO[C@@](Cn6cncn6)(c6ccc(F)cc6F)C5)cc4)CC3)cc2)c1=O [posaconazole]
itraconazole = compound: CCC(C)n1ncn(-c2ccc(N3CCN(c4ccc(OCC5COC(Cn6cncn6)(c6ccc(Cl)cc6Cl)O5)cc4)CC3)cc2)c1=O [itraconazole]
anidulafungin = compound: CCCCCOc1ccc(-c2ccc(-c3ccc(C(=O)N[C@H]4C[C@@H](O)[C@@H](O)NC(=O)[C@@H]5[C@@H](O)[C@@H](C)CN5C(=O)[C@H]([C@@H](C)O)NC(=O)[C@H]([C@H](O)[C@@H](O)c5ccc(O)cc5)NC(=O)[C@@H]5C[C@@H](O)CN5C(=O)[C@H]([C@@H](C)O)NC4=O)cc3)cc2)cc1 [anidulafungin]
fluconazole = compound: OC(Cn1cncn1)(Cn1cncn1)c1ccc(F)cc1F [fluconazole]
flucytosine = compound: Nc1[nH]c(=O)ncc1F [flucytosine]
voriconazole = compound: C[C@@H](c1ncncc1F)[C@](O)(Cn1cncn1)c1ccc(F)cc1F [voriconazole]
amphotericin B = compound: C[C@@H]1[C@H](O)[C@@H](C)/C=C/C=C/C=C/C=C/C=C/C=C/C=C/[C@H](O[C@@H]2O[C@H](C)[C@@H](O)[C@H](N)[C@@H]2O)C[C@@H]2O[C@](O)(C[C@@H](O)C[C@@H](O)[C@H](O)CC[C@@H](O)C[C@@H](O)CC(=O)O[C@H]1C)C[C@H](O)[C@H]2C(=O)O [amphotericin B]

Candida albicans isolate 128 (Erg11p: E266D, Fur1p: WT, Tac1p: T885K,I558V,A430V,A377V,F189S,N174D,M170I,M170V,K87N)
MIC (micafungin): 0.015 mg/L [S]
MIC (caspofungin): 0.03 mg/L [S]
MIC (posaconazole): 0.015 mg/L [S]
MIC (itraconazole): 0.03 mg/L [S]
MIC (anidulafungin): 0.12 mg/L [S]
MIC (fluconazole): ≤ 0.12 mg/L [S]
MIC (flucytosine): ≤ 0.06 mg/L [S]
MIC (voriconazole): ≤ 0.008 mg/L [S]
MIC (amphotericin B): 0.25 mg/L [S]

Candida albicans isolate 207 (Erg11p: V488I,E266D, Fur1p: WT, Tac1p: I558V,A377V,F189S,N174D,M170I,K87N)
MIC (micafungin): ≤ 0.008 mg/L [S]
MIC (caspofungin): 0.03 mg/L [S]
MIC (posaconazole): 0.015 mg/L [S]
MIC (itraconazole): ≤ 0.015 mg/L [S]
MIC (anidulafungin): 0.03 mg/L [S]
MIC (fluconazole): 0.25 mg/L [S]
MIC (flucytosine): ≤ 0.06 mg/L [S]
MIC (voriconazole): ≤ 0.008 mg/L [S]
MIC (amphotericin B): 0.5 mg/L [S]

Candida albicans isolate 117 (Erg11p: WT, Fur1p: WT, Tac1p: WT)
MIC (micafungin): ≤ 0.008 mg/L [S]
MIC (caspofungin): 0.12 mg/L [S]
MIC (posaconazole): 0.015 mg/L [S]
MIC (itraconazole): 0.03 mg/L [S]
MIC (anidulafungin): 0.12 mg/L [S]
MIC (fluconazole): 0.25 mg/L [S]
MIC (flucytosine): ≤ 0.06 mg/L [S]
MIC (voriconazole): ≤ 0.008 mg/L [S]
MIC (amphotericin B): 0.5 mg/L [S]

Candida albicans isolate 3 (Erg11p: WT, Fur1p: WT, Tac1p: N896S,A717T,I558V,A377V,F189S,N174D,M170I,K87N)
MIC (micafungin): 0.015 mg/L [S]
MIC (caspofungin): 0.06 mg/L [S]
MIC (posaconazole): 0.03 mg/L [S]
MIC (itraconazole): 0.06 mg/L [S]
MIC (anidulafungin): 0.12 mg/L [S]
MIC (fluconazole): 0.5 mg/L [S]
MIC (flucytosine): ≤ 0.06 mg/L [S]
MIC (voriconazole): 0.015 mg/L [S]
MIC (amphotericin B): 0.25 mg/L [S]

Candida albicans isolate 28 (Erg11p: V488I,E266D, Fur1p: WT, Tac1p: N896S,N174D,M170I,K87N)
MIC (micafungin): ≤ 0.008 mg/L [S]
MIC (caspofungin): 0.015 mg/L [S]
MIC (posaconazole): 0.015 mg/L [S]
MIC (itraconazole): 0.03 mg/L [S]
MIC (anidulafungin): ≤ 0.015 mg/L [S]
MIC (fluconazole): 0.5 mg/L [S]
MIC (flucytosine): ≤ 0.06 mg/L [S]
MIC (voriconazole): ≤ 0.008 mg/L [S]
MIC (amphotericin B): 0.5 mg/L [S]

Candida albicans isolate 163 (Erg11p: D153E, Fur1p: WT, Tac1p: I558V,A377V,F189S,I60V)
MIC (micafungin): 0.015 mg/L [S]
MIC (caspofungin): 0.03 mg/L [S]
MIC (posaconazole): 0.015 mg/L [S]
MIC (itraconazole): ≤ 0.015 mg/L [S]
MIC (anidulafungin): 0.03 mg/L [S]
MIC (fluconazole): 0.25 mg/L [S]
MIC (flucytosine): ≤ 0.06 mg/L [S]
MIC (voriconazole): ≤ 0.008 mg/L [S]
MIC (amphotericin B): 0.25 mg/L [S]

Candida albicans isolate 340 (Erg11p: G465S,Y132H, Fur1p: R101C, Tac1p: WT)
MIC (micafungin): 0.015 mg/L [S]
MIC (caspofungin): 0.015 mg/L [S]
MIC (posaconazole): 0.015 mg/L [S]
MIC (itraconazole): 0.06 mg/L [S]
MIC (anidulafungin): ≤ 0.015 mg/L [S]
MIC (fluconazole): 2 mg/L [S]
MIC (flucytosine): 0.25 mg/L [S]
MIC (voriconazole): 0.12 mg/L [S]
MIC (amphotericin B): 0.5 mg/L [S]

Candida albicans isolate 269 (Erg11p: V488I,E266D, Fur1p: WT, Tac1p: I895T,R673G)
MIC (micafungin): 0.03 mg/L [S]
MIC (caspofungin): 0.06 mg/L [S]
MIC (posaconazole): 0.5 mg/L [R]
MIC (itraconazole): 0.5 mg/L [R]
MIC (anidulafungin): ≤ 0.015 mg/L [S]
MIC (fluconazole): 16 mg/L [R]
MIC (flucytosine): 0.12 mg/L [S]
MIC (voriconazole): 0.25 µg/mL
MIC (amphotericin B): 0.5 mg/L [S]

Candida albicans isolate 258 (Erg11p: D153E, Fur1p: WT, Tac1p: N896S)
MIC (micafungin): 0.015 mg/L [S]
MIC (caspofungin): 0.06 mg/L [S]
MIC (posaconazole): 0.015 mg/L [S]
MIC (itraconazole): 0.03 mg/L [S]
MIC (anidulafungin): 0.12 mg/L [S]
MIC (fluconazole): 0.5 mg/L [S]
MIC (flucytosine): ≤ 0.06 mg/L [S]
MIC (voriconazole): ≤ 0.008 mg/L [S]
MIC (amphotericin B): 0.5 mg/L [S]

Candida albicans isolate 225 (Erg11p: V437I,E266D, Fur1p: WT, Tac1p: S937L,I895T,L695F,I558V,F189S)
MIC (micafungin): 0.015 mg/L [S]
MIC (caspofungin): 0.03 mg/L [S]
MIC (posaconazole): 0.015 mg/L [S]
MIC (itraconazole): ≤ 0.015 mg/L [S]
MIC (anidulafungin): 0.03 mg/L [S]
MIC (fluconazole): 0.5 mg/L [S]
MIC (flucytosine): ≤ 0.06 mg/L [S]
MIC (voriconazole): ≤ 0.008 mg/L [S]
MIC (amphotericin B): 0.5 mg/L [S]

Candida albicans isolate 339 (Erg11p: WT, Fur1p: WT, Tac1p: WT)
MIC (micafungin): 0.015 mg/L [S]
MIC (caspofungin): 0.06 mg/L [S]
MIC (posaconazole): 0.015 mg/L [S]
MIC (itraconazole): 0.03 mg/L [S]
MIC (anidulafungin): 0.06 mg/L [S]
MIC (fluconazole): 0.25 mg/L [S]
MIC (flucytosine): ≤ 0.06 mg/L [S]
MIC (voriconazole): ≤ 0.008 mg/L [S]
MIC (amphotericin B): 0.5 mg/L [S]

Candida albicans isolate 183 (Erg11p: V488I,V362I,E266D, Fur1p: WT, Tac1p: N896S,S410G,M170V,S108N)
MIC (micafungin): 0.015 mg/L [S]
MIC (caspofungin): 0.06 mg/L [S]
MIC (posaconazole): 0.015 mg/L [S]
MIC (itraconazole): 0.03 mg/L [S]
MIC (anidulafungin): 0.12 mg/L [S]
MIC (fluconazole): 0.25 mg/L [S]
MIC (flucytosine): ≤ 0.06 mg/L [S]
MIC (voriconazole): ≤ 0.008 mg/L [S]
MIC (amphotericin B): 0.5 mg/L [S]

Candida albicans isolate 210 (Erg11p: E266D, Fur1p: WT, Tac1p: C908Y)
MIC (micafungin): 0.015 mg/L [S]
MIC (caspofungin): 0.06 mg/L [S]
MIC (posaconazole): 0.06 mg/L [S]
MIC (itraconazole): 0.06 mg/L [S]
MIC (anidulafungin): ≤ 0.015 mg/L [S]
MIC (fluconazole): 2 mg/L [S]
MIC (flucytosine): ≤ 0.06 mg/L [S]
MIC (voriconazole): 0.015 mg/L [S]
MIC (amphotericin B): 0.5 mg/L [S]

Candida albicans isolate 311 (Erg11p: E266D, Fur1p: WT, Tac1p: C908Y,A377V,N174D,M170I,I109N,K87N)
MIC (micafungin): 0.015 mg/L [S]
MIC (caspofungin): 0.06 mg/L [S]
MIC (posaconazole): 0.015 mg/L [S]
MIC (itraconazole): 0.03 mg/L [S]
MIC (anidulafungin): 0.12 mg/L [S]
MIC (fluconazole): 0.25 mg/L [S]
MIC (flucytosine): ≤ 0.06 mg/L [S]
MIC (voriconazole): ≤ 0.008 mg/L [S]
MIC (amphotericin B): 0.25 mg/L [S]

Candida albicans isolate 189 (Erg11p: WT, Fur1p: R101C, Tac1p: WT)
MIC (micafungin): 0.015 mg/L [S]
MIC (caspofungin): 0.015 mg/L [S]
MIC (posaconazole): 0.015 mg/L [S]
MIC (itraconazole): 0.03 mg/L [S]
MIC (anidulafungin): ≤ 0.015 mg/L [S]
MIC (fluconazole): 0.25 mg/L [S]
MIC (flucytosine): 0.25 mg/L [S]
MIC (voriconazole): ≤ 0.008 mg/L [S]
MIC (amphotericin B): 0.5 mg/L [S]

Candida albicans isolate 335 (Erg11p: WT, Fur1p: WT, Tac1p: I558V,A377V,F189S,N174D,M170I,K87N)
MIC (micafungin): 0.015 mg/L [S]
MIC (caspofungin): 0.03 mg/L [S]
MIC (posaconazole): 0.015 mg/L [S]
MIC (itraconazole): ≤ 0.015 mg/L [S]
MIC (anidulafungin): ≤ 0.015 mg/L [S]
MIC (fluconazole): 0.25 mg/L [S]
MIC (flucytosine): ≤ 0.06 mg/L [S]
MIC (voriconazole): ≤ 0.008 mg/L [S]
MIC (amphotericin B): 0.25 mg/L [S]

Candida albicans isolate 38 (Erg11p: WT, Fur1p: WT, Tac1p: WT)
MIC (micafungin): ≤ 0.008 mg/L [S]
MIC (caspofungin): 0.03 mg/L [S]
MIC (posaconazole): 0.015 mg/L [S]
MIC (itraconazole): 0.03 mg/L [S]
MIC (anidulafungin): ≤ 0.015 mg/L [S]
MIC (fluconazole): 0.5 mg/L [S]
MIC (flucytosine): ≤ 0.06 mg/L [S]
MIC (voriconazole): ≤ 0.008 mg/L [S]
MIC (amphotericin B): 0.25 mg/L [S]
